In PubChem BioAssay AID1508623 (National Center for Advancing Translational Sciences (NCATS), 2021):
About 450 (0.94%) of roughly 48,000 compounds were called active. Roughly 19% stayed inconclusive and do not appear here. The call rests on the fitted dose curve; in most records, active means well fitted inhibition curve with a large enough effect; inconclusive means small, poorly fitted or top-dose-only effect; inactive means no such curve, though single readings can be large or run the other way. The list shows a part of the results.

Assay: Primary qHTS for Identification of Small Molecule Inhibitors of Huntingtin Promoter Activity; further: nearly all actives have a fitted effect of over 50% in size
Details: HEK293 HTT promoter firefly luciferase reporter (activity 0% = vehicle and -100% = no light), 24 h; series mostly up to 57.5 µM; activity change, negative = inhibition: at the top concentration
Outline: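 HEK293 cells carrying firefly luciferase reporters were seeded at 2,500 per well in Opti-MEM and cultured for 24 h. They were then treated with compounds at up to 57.5 uM final for 24 h at 37 degrees C before Dual-Glo luminescence readout.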

Activity change, negative = inhibition, inactive:
O=C(NCc1cccs1)c1ccc2c(c1)N(Cc1ccccc1Cl)C(=O)c1ccccc1S2 8.33%, COc1ccc(-c2cc(C(=O)OCC(=O)c3ccc(C)cc3)c3cccc(Cl)c3n2)cc1 0.923%, CC(C)Cn1c(=O)c2ccccc2n2c(CCC(=O)NCc3ccccc3Cl)nnc12 -2.79%, O=C(CN1CCNCC1)NC1CCCCC1 -0.765%, CC(=O)NCCNC(=O)CCCc1nnc2n(C)c(=O)c3sccc3n12 2.3%, COc1ccc(CNC(=O)c2cc3cc(C)ccc3n2C)cc1 -21.1%, O=C(NCc1ccccc1Br)c1ccc2nc(N3CCCCC3)sc2c1 -13.9%, CCCCN(CCCC)C(=O)CN(C)S(=O)(=O)c1ccc2c(c1)c(=O)n(C)c(=O)n2C -21.2%, CC(Nc1ccc(-c2nc(-c3ccncc3)no2)cc1[N+](=O)[O-])c1ccccc1 (stereo unspecified) 1.72%, Cc1sc2c(c1C)c(=O)n(CCc1ccccc1)c(=O)n2Cc1cccc(F)c1 -17%, Cc1ccc(-n2c(=O)c3c(c4cc(C)ccc4n3C)n(CC(=O)NCc3ccccc3Cl)c2=O)cc1 -0.914%, O=C(Nc1cc(F)ccc1F)C1CCN(c2nc3ccccc3n3cccc23)CC1 -10.2%, COc1ccc(CCC(=O)NC2CC(=O)N(c3ccc(C)cc3)C2)cc1 (stereo unspecified) -23.5%, CCCCNC(=O)C(CC)Sc1nnc(-c2cccc(F)c2)c(-c2cccc(F)c2)n1 (stereo unspecified) -11.5%, CCCCOC(=O)c1ccc(Nc2ncnc3[nH]ncc23)cc1 -2.72%, Cc1cc(C)cc(N2CC(c3nc(-c4ccccc4C)no3)CC2=O)c1 (stereo unspecified) -16.9%, CC(=O)Nc1c(C)nn(-c2ccccc2)c1N1CCC(C(=O)NCc2ccc(Cl)cc2)CC1 -9.14%, Cc1cccc(NC(=O)Cn2c(=O)n(-c3ccccc3Cl)c(=O)c3c(C)c(C(=O)N(C)C)sc32)c1 -0.279%, Cc1nc2c(C(=O)NCCc3ccc(Cl)cc3)cnn2c(C)c1Cc1c(F)cccc1Cl -1.41%, Cc1ccccc1CNC(=O)C(C)n1nc(C)n2c(cc3occc32)c1=O (stereo unspecified) -4.35%, COc1ccc(CC(=O)Nc2nc3c(s2)CC(C(C)(C)C)CC3)cc1 (stereo unspecified) 9.36%, COc1ccc(NC(=O)C2=CC(c3cccs3)=NS(=O)(=O)N2C)cc1 -30.2%, Cc1ccc(NC(=O)CN2C(=O)CCSc3ccc(S(=O)(=O)N4CCCC4)cc32)cc1 -20.4%, Cc1ccc(-c2nc3c(c(SCC(=O)N4CCCCC4)n2)Cc2cc(C)ccc2O3)cc1 -18.4%, CC(C)=CCC[C@@](C)(O)[C@H]1CC=C(C)CC1 14%, CCn1c(CNC(=O)c2ccc(OC)cc2)nnc1SCC(=O)Nc1ccc(OC)cc1 9.32%, Cc1nn(Cc2noc(C(=O)NCc3ccc(F)cc3)n2)c(C)c1Br -13.9%, O=C(NCCc1ccccc1)c1ccc2c(c1)N(Cc1ccccc1Cl)C(=O)c1ccccc1S2 6.33%, COc1ccc(-c2nc3scc(CCNS(=O)(=O)c4ccc(F)cc4F)n3n2)cc1OC -23.2%, CC(C)NC(=O)Nc1ccc2c(c1)N(C)C(=O)c1ccccc1S2 0.23%, CCOC(=O)c1cccc(NC(=O)CSc2ncc3c(n2)-c2ccccc2N(C)S3(=O)=O)c1 -14.8%, COc1ccccc1CNC(=O)C(Cc1ccccc1)NS(=O)(=O)c1ccc2c(c1)oc(=O)n2C (stereo unspecified) -24.2%, CCOc1ccc(CC(=O)Nc2ccc3nc(N4CCCCC4)cc(C)c3c2)cc1OCC -8.07%, CCc1nnc(NC(=O)CSc2nc3c([nH]c4ccccc43)c(=O)n2-c2cc(C)cc(C)c2)s1 3.91%, Clc1cccc(CNc2ncnc3c2nc2n3CCCC2)c1 -7.81%, Cc1nnc(SCc2cc(=O)n3c(C)cccc3n2)s1 46%, CCOc1ccc(Cn2c(=O)oc3ccccc32)cc1 8.42%, Cc1ccc(-c2noc(COc3ccc(Br)c(C)c3)n2)cc1 -18.9%, O=C1C(=O)c2ccccc2C(O)=C1C1CCC(c2ccc(Cl)cc2)CC1 (stereo unspecified) -3.08%, O=C(Cn1c(=O)n(Cc2ccc3c(c2)OCO3)c(=O)c2ccccc21)Nc1cccc(Cl)c1 -21%, NS(=O)(=O)c1ccc(NC(=O)CCn2c(=O)oc3ccccc32)cc1 -9.97%, Cn1c(=O)oc2cc(S(=O)(=O)CCC(=O)NCc3ccccc3)ccc21 -10% [at 11.5 µM], CCOc1ccc(N(C)S(=O)(=O)c2ccc3c(c2)C(C)(C)C(=O)N3C)cc1 -10.4%, CCOc1ccc(N2CC(c3nc(-c4cc(OC)c(OC)c(OC)c4)no3)CC2=O)cc1 (stereo unspecified) 0%, Cc1ccc(-n2nnc3c(sc4nc(C)c(C)cc43)c2=O)cc1Cl 2.46%, Cc1ccc(C)c(NC(=O)C2CCCN(S(=O)(=O)c3c(C)noc3/C=C/N(C)C)C2)c1 (stereo unspecified) -14.1%, CCOC(=O)c1c(C)oc2nc(C)nc(NCC3CCN(Cc4ccc(Cl)cc4)CC3)c12 -8.04%, CCN(c1ccccc1)S(=O)(=O)c1nnc(NC(=O)COc2ccc(OC)cc2)s1 -9.55%, O=C1C(CCC(O)c2ccc(F)cc2)C(c2ccc(O)cc2)N1c1ccc(F)cc1 (stereo unspecified) -28.2%, COCCNC(=O)C1CCN(S(=O)(=O)c2ccc3c(c2)CCCN3C(C)=O)CC1 -4.57%, COc1ccc(-c2nc3n(n2)C(c2ccc(OC)cc2)C(C(=O)Nc2cccnc2)=C(C)N3)cc1 (stereo unspecified) -21.7%, CCOC(=O)c1[nH]c(C)c(CCC(=O)N2CCN(c3ccccc3)CC2)c1C -10.3%, CC1=C(c2ccc(C)c(C)c2)S(=O)(=O)N=C1N1CCN(c2cccc(C(F)(F)F)c2)CC1 -10%, Cc1ccc(NC(=O)Cn2c(=O)n(-c3ccc(CC(=O)NCC4CCCO4)cc3)c(=O)c3ccccc32)cc1 (stereo unspecified) -3.8%, CCOc1ccc(-n2c(=O)c3c4c(sc3n(Cc3cccc(Cl)c3)c2=O)CCCC4)cc1 -4.65%, CCCC(=O)N(c1ccc2oc(-c3ccccc3)c(C(=O)OCC)c2c1)S(=O)(=O)c1ccc(C)cc1 -1.62%, COCCCNC(=O)Cn1c(=O)n(CCCC(=O)NCc2ccc(C)cc2)c(=O)c2ccccc21 -5.04%, O=C(NCC(c1ccc2c(c1)OCO2)N1CCOCC1)c1ccc(F)cc1 (stereo unspecified) -7.55%, Cc1ccc(/C=C(\C#N)c2nc(-c3cc4c(ccc5ccccc54)oc3=O)cs2)cc1 -14.4%, CCn1cc(C(=O)N2CCN(c3ccccc3OC)CC2)c(=O)c2cc(S(=O)(=O)N3CCCCC3)ccc21 -26.4% [at 11.5 µM], Cc1cccc(C(=O)Nc2ccccc2-c2nc(-c3ccccc3)no2)c1 9.87%, O=C(CCSCc1ccccc1F)N1CCN(c2ccc(F)cc2)CC1 -6.72%, Cn1cc(C(=O)NCc2ccc(F)cc2)c(=O)c2cc(S(=O)(=O)N3CCCCC3)ccc21 -19.4% [at 11.5 µM], CCOc1ccccc1NC(=O)Cn1c(=O)n(Cc2ccc(C(=O)NCCCOC)cc2)c(=O)c2ccccc21 -3.68%, COc1cc(OC)c(NC(=O)c2oc3ccc4c(c3c2C)C(=O)CC(C)(C)O4)cc1Cl -3.85%, O=C(O)c1cccc(NC(=O)c2cccc(S(=O)(=O)Nc3cccc(C(=O)O)c3)c2)c1 -3.2%, CCn1c(=O)c2cc(C(=O)N(C)c3cc(C)ccc3C)sc2c2ccccc21 -11.8%, CC(C)c1ccc(Nc2nc3ccc(C(=O)c4ccccc4)cc3n3cnnc23)cc1 -35.4%, CCN(C(=O)c1sc2nc3n(c(=O)c2c1C)CCCCC3)c1ccccc1F -6.87%, Cc1ccc(NC(=O)Nc2nnc(N3CCCCC3)s2)c(C)c1 -0.353%, CCc1ccc(CNC(=O)c2cc3c(=O)oc4ccc(C)cc4c3s2)cc1 -6.01%, COc1ccc(NC(=O)c2ccc3snnc3c2)cc1OC 9.94%, CN(C)C(=O)c1ccc(S(=O)(=O)NCc2ccccc2Cl)s1 -11.9%, COc1cc(OC)cc(-n2c(=O)[nH]c3cc(C(=O)NCCc4ccc(C)cc4)ccc3c2=O)c1 -15%, COc1ccc(-n2cc3c(c2-c2cccc(Br)c2)c(=O)n(C)c(=O)n3C)cc1OC 3.42%, COc1ccc(-c2cc(C(F)(F)F)nc(SCC(=O)NCc3ccc(F)cc3)n2)cc1 -0.473%, COc1cccc(NC(=O)Cn2c(=O)n(Cc3ccccc3)c(=O)c3c4c(sc32)CN(C(C)=O)CC4)c1 -4.1%, COC(=O)c1ccccc1NC(=O)c1nc(SCc2ccccc2C)ncc1Cl -13.5%, O=c1c2oc3ccccc3c2n(Cc2ccccc2F)c(=O)n1Cc1ccco1 -12.2%, Cc1c(CNCCCc2ccccc2)c(C(=O)O)c(C)n1Cc1ccc(Cl)cc1 -25.2%, Cc1cc(=O)[nH]c2nnc(SCc3cccc(F)c3)n12 -15.3%, CCOC(=O)NNc1nncc2ccccc12 12.8%, COc1ccc(S(=O)(=O)NC2(C(F)(F)F)NC(=O)N(CCc3ccccc3)C2=O)cc1 (stereo unspecified) 2.68%, Cc1ccccc1NC(=O)Nc1nnc(N(C)Cc2ccccc2)s1 -14.4%, Cc1c(Cl)cccc1N1CC(c2nc3ccccc3n2Cc2ccccc2F)CC1=O (stereo unspecified) 5.77%, Oc1ccccc1-c1nc(/C=C/c2ccc(F)cc2)no1 33.3%, Cc1cccc(NC(=O)Cn2c(=O)n(Cc3ccc4c(c3)OCO4)c(=O)c3ccccc32)c1 -17%, Cc1[nH]c2ccccc2c1CCNCc1ccc(C=CC(=O)NO)cc1 266%, Cc1cc(=O)[nH]c(SCC(=O)N2CCN(c3ccccc3)CC2)n1 -12.1%, COc1ccc(-c2nc3ccc(C(=O)NCc4ccc(C)cc4)cc3nc2-c2ccc(OC)cc2)cc1 -3.48%, COc1ccc(Cl)cc1-n1c(CCC(=O)O)ccc1-c1ccc(C)cc1 55.1%, COc1ccc(NC(=O)c2oc3ccccc3c2NC(=O)Cc2ccc(F)cc2)c(OC)c1 -16.3%, CCC(=O)N1CCc2cc(CNS(=O)(=O)c3cc(Cl)ccc3OC)ccc21 -2.01%, COc1ccc(Br)cc1CNC(=O)CCSCc1ccc(Cl)cc1 -14.2%, Cc1nn(CC(=O)N2CCN(c3ccccc3)CC2)c(=O)c2cc3sccc3n12 6.83%, CCN1CCN(c2cc(C)c3cc(NC(=O)c4cc(OC)cc(OC)c4)ccc3n2)CC1 50.3%
